{"source": "the RNAGym collection of RNA variant scans (doi:10.1093/nar/gkz1192)", "parents": {"B1": {"name": "CPEB3 Ribozyme (parent)", "chain": "UAACAGGGGGCCACAGCAGAAGCGUUCACGUCGCAGCCCCUGUCAGAUUCUGGUGAAUCUGCGAAUUCUGCUGUAUAUCUC"}}, "note": "The source gives no read counts; variants with many changes may rest on few reads."}
{"variants_of": "B1", "experiment": "self-cleavage, relative activity (ratio to wild type); higher = more cleavage; in vitro, sequencing", "procedure,_shortened": "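Relative activity compares each variant's cleaved/total read fraction with that of the unmutated ribozyme. To get these fractions, barcoded CPEB3 ribozyme libraries from rounds of error-prone PCR were transcribed with T7 RNA polymerase for 5 hours at 37°C and then given 15 min of DNase I treatment before EDTA was added. The RNAs were reverse transcribed with template switching and sequenced on Illumina, and DNA sequencing linked barcodes to variants. A minimum of 5 reads applied, and three batches were averaged.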"}
{"variant": "U48C U54C A56G C62U A64G C81U", "self-cleavage": 0.12}
{"variant": "U48C U54C G63U A77G", "self-cleavage": 0.44}
{"variant": "U48C U54C U58A", "self-cleavage": 0.15}
{"variant": "U48C U54C U58C U72A", "self-cleavage": 0.14}
{"variant": "U48C U54C U60C U67A U80A", "self-cleavage": 0.1}
{"variant": "U48C U60A A77C", "self-cleavage": 0.14}
{"variant": "U48C U60C U69C U78C", "self-cleavage": 0.13}
{"variant": "U48C U60C U74A", "self-cleavage": 0.16}
{"variant": "U48C U60C U76C", "self-cleavage": 0.41}
{"variant": "U48C U60G U67C", "self-cleavage": 0.2}
{"variant": "U48C U67A U72C", "self-cleavage": 0.36}
{"variant": "U48C U67A U74C", "self-cleavage": 0.44}
{"variant": "U48C U69A U74C", "self-cleavage": 0.52}
{"variant": "U48C U69C A75U", "self-cleavage": 0.35}
{"variant": "U48C U69C G73A", "self-cleavage": 0.16}
{"variant": "U48C U69C U80C", "self-cleavage": 0.48}
{"variant": "U48C U72A A77C", "self-cleavage": 0.42}
{"variant": "U48C U72G U76C", "self-cleavage": 0.32}
{"variant": "U48C U74G A75U", "self-cleavage": 0.64}
{"variant": "U48G A57G U72G U80C", "self-cleavage": 0.77}
{"variant": "U48G U67C U78C", "self-cleavage": 0.4}
{"variant": "U48G U72C A77G", "self-cleavage": 0.25}
{"variant": "U48G U74C U76A", "self-cleavage": 1.05}
{"variant": "U49A A56G U58C U69C U76C", "self-cleavage": 0.14}
{"variant": "U49A A56U U60C U67C U72C U80C", "self-cleavage": 0.19}
{"variant": "U49A A57U U78A", "self-cleavage": 0.46}
{"variant": "U49A A64G U74C C81U", "self-cleavage": 0.83}
{"variant": "U49A A64G U78C", "self-cleavage": 0.36}
{"variant": "U49A A64U A65G U78C", "self-cleavage": 0.14}
{"variant": "U49A A64U U66A", "self-cleavage": 0.18}
{"variant": "U49A A64U U69C U78C", "self-cleavage": 0.42}
{"variant": "U49A A65G U76C", "self-cleavage": 0.25}
{"variant": "U49A A75U U78C", "self-cleavage": 0.8}
{"variant": "U49A C59A U69C U72A", "self-cleavage": 0.13}
{"variant": "U49A G52C U69A", "self-cleavage": 0.42}
{"variant": "U49A G53A U54C U72A", "self-cleavage": 0.4}
{"variant": "U49A G61A A65G", "self-cleavage": 0.22}
{"variant": "U49A G63C U67C U78C", "self-cleavage": 0.5}
{"variant": "U49A G70C U78C", "self-cleavage": 0.21}
{"variant": "U49A G70U U72A", "self-cleavage": 0.1}
{"variant": "U49A U51A U60C", "self-cleavage": 0.2}
{"variant": "U49A U51C A56G", "self-cleavage": 0.82}
{"variant": "U49A U51C U69A", "self-cleavage": 0.4}
{"variant": "U49A U54C C62U U80C", "self-cleavage": 0.15}
{"variant": "U49A U54C U69C", "self-cleavage": 0.18}
{"variant": "U49A U54G U60C", "self-cleavage": 0.11}
{"variant": "U49A U58A A65G C71A", "self-cleavage": 0.13}
{"variant": "U49A U58C A64G", "self-cleavage": 0.32}
{"variant": "U49A U58C U67A", "self-cleavage": 0.09}
{"variant": "U49A U60C A65G U66A", "self-cleavage": 0.2}
{"variant": "U49A U60C C68U U69A U74C", "self-cleavage": 0.27}
{"variant": "U49A U60C U66A", "self-cleavage": 0.14}
{"variant": "U49A U67C U69C", "self-cleavage": 0.19}
{"variant": "U49A U69C U74C U80C", "self-cleavage": 0.32}
{"variant": "U49A U69C U80C", "self-cleavage": 0.45}
{"variant": "U49A U74G U78G", "self-cleavage": 1.22}
{"variant": "U49C A56C A75G", "self-cleavage": 0.51}
{"variant": "U49C A56G A64G", "self-cleavage": 1.06}
{"variant": "U49C A56G A65G U69C", "self-cleavage": 0.12}
{"variant": "U49C A56G U66C U72C", "self-cleavage": 0.36}
{"variant": "U49C A56G U69A", "self-cleavage": 0.65}
{"variant": "U49C A56G U72C", "self-cleavage": 1.3}
{"variant": "U49C A56U U67C", "self-cleavage": 0.12}
{"variant": "U49C A56U U67C U72C", "self-cleavage": 0.15}
{"variant": "U49C A57G A64G U72C", "self-cleavage": 0.12}
{"variant": "U49C A57G C62U U76C A77G", "self-cleavage": 0.06}
{"variant": "U49C A57G G70C U72C", "self-cleavage": 0.15}
{"variant": "U49C A57G U58A", "self-cleavage": 0.44}
{"variant": "U49C A57G U66C", "self-cleavage": 0.11}
{"variant": "U49C A57G U72C", "self-cleavage": 0.37}
{"variant": "U49C A57G U72C U78C", "self-cleavage": 0.27}
{"variant": "U49C A57U U66C U74G", "self-cleavage": 0.06}
{"variant": "U49C A64G U66C U72C", "self-cleavage": 0.13}
{"variant": "U49C A64G U67C", "self-cleavage": 0.13}
{"variant": "U49C A65G U76G", "self-cleavage": 0.12}
{"variant": "U49C G52A A56C U78C", "self-cleavage": 0.55}
{"variant": "U49C G52U U80A", "self-cleavage": 0.83}
{"variant": "U49C G53A A56U U69C", "self-cleavage": 0.1}
{"variant": "U49C G53A A57G U69C", "self-cleavage": 0.13}
{"variant": "U49C G53C U76A A77G", "self-cleavage": 0.38}
{"variant": "U49C G63A U78C", "self-cleavage": 0.17}
{"variant": "U49C G70A U74C", "self-cleavage": 0.19}
{"variant": "U49C U51A A65G U72C", "self-cleavage": 0.22}
{"variant": "U49C U51A A75C", "self-cleavage": 0.72}
{"variant": "U49C U51A C59A", "self-cleavage": 0.21}
{"variant": "U49C U51A C59G", "self-cleavage": 0.17}
{"variant": "U49C U51A U72A A75U A77U", "self-cleavage": 0.4}
{"variant": "U49C U51C C62U G70A", "self-cleavage": 0.17}
{"variant": "U49C U51C G70A", "self-cleavage": 0.16}
{"variant": "U49C U51C U67C U72C", "self-cleavage": 0.41}
{"variant": "U49C U51C U76C", "self-cleavage": 0.38}
{"variant": "U49C U51G U54A A64U U72C", "self-cleavage": 0.11}
{"variant": "U49C U54A C62U A77G", "self-cleavage": 0.12}
{"variant": "U49C U54A G63A U78C", "self-cleavage": 0.37}
{"variant": "U49C U54C A64U", "self-cleavage": 0.16}
{"variant": "U49C U54C C68A U72C", "self-cleavage": 0.1}
{"variant": "U49C U54C U66C U80A", "self-cleavage": 0.17}
{"variant": "U49C U54C U80C", "self-cleavage": 0.7}
{"variant": "U49C U58A A75U", "self-cleavage": 0.13}
{"variant": "U49C U58A U67C", "self-cleavage": 0.11}
{"variant": "U49C U58C A65G", "self-cleavage": 0.04}
{"variant": "U49C U58C U66A U67C", "self-cleavage": 0.11}
{"variant": "U49C U58C U74A", "self-cleavage": 0.11}
{"variant": "U49C U58G U60G U72A", "self-cleavage": 0.1}
{"variant": "U49C U60A C68U", "self-cleavage": 0.08}
{"variant": "U49C U60C C62U A64G A65G U69A U72C", "self-cleavage": 0.08}
{"variant": "U49C U60C U69G U72C U80C", "self-cleavage": 0.13}
{"variant": "U49C U60C U78C", "self-cleavage": 0.28}
{"variant": "U49C U66C U69G", "self-cleavage": 0.2}
{"variant": "U49C U67A U69C", "self-cleavage": 0.18}
{"variant": "U49C U67C C71U", "self-cleavage": 0.11}
{"variant": "U49C U69A U72C", "self-cleavage": 0.39}
{"variant": "U49C U69C A77U", "self-cleavage": 0.37}
{"variant": "U49C U69C U78A", "self-cleavage": 0.35}
{"variant": "U49C U72A U80C", "self-cleavage": 0.49}
{"variant": "U49C U72C U74A", "self-cleavage": 0.64}
{"variant": "U49C U78A C79U", "self-cleavage": 0.25}
{"variant": "U49G U51A U54C A57U U72C", "self-cleavage": 0.17}
{"variant": "C50A A56G U69A", "self-cleavage": 0.27}
{"variant": "C50A A57G U72C", "self-cleavage": 0.53}
{"variant": "C50A A57G U80C", "self-cleavage": 0.97}
{"variant": "C50A U54C U60A C68U", "self-cleavage": 0.15}
{"variant": "C50A U54C U72A", "self-cleavage": 0.87}
{"variant": "C50A U60C U69A", "self-cleavage": 0.15}
{"variant": "C50U A64G C81U", "self-cleavage": 0.73}
{"variant": "C50U A64G U67C U80C", "self-cleavage": 0.22}
{"variant": "C50U U60C A64U", "self-cleavage": 0.14}
{"variant": "C50U U60C U76C", "self-cleavage": 0.28}
{"variant": "U51A A56G A64G", "self-cleavage": 0.61}
{"variant": "U51A A56G A64U U66C", "self-cleavage": 0.23}
{"variant": "U51A A56G U72G", "self-cleavage": 0.44}
{"variant": "U51A A56U A65G U72A U78G", "self-cleavage": 0.73}
{"variant": "U51A A57C U69A U76C", "self-cleavage": 0.34}
{"variant": "U51A A57G A64U U72G U80A", "self-cleavage": 0.2}
{"variant": "U51A A57G G61A U78C", "self-cleavage": 0.38}
{"variant": "U51A A57G U58G", "self-cleavage": 0.1}
{"variant": "U51A A57G U60C", "self-cleavage": 0.59}
{"variant": "U51A A57G U72A U80C", "self-cleavage": 0.74}
{"variant": "U51A A57G U72C", "self-cleavage": 0.98}
{"variant": "U51A A57G U74A A77G", "self-cleavage": 0.77}
{"variant": "U51A A57G U80C", "self-cleavage": 0.38}
{"variant": "U51A A64G A77U", "self-cleavage": 0.94}
{"variant": "U51A A64U A65U U66C U76A A77G", "self-cleavage": 0.1}
{"variant": "U51A A65U U72C", "self-cleavage": 0.45}
{"variant": "U51A C68A U69A", "self-cleavage": 0.6}
{"variant": "U51A C68U U72C", "self-cleavage": 0.88}
{"variant": "U51A C68U U72G", "self-cleavage": 0.94}
{"variant": "U51A G53C A57G", "self-cleavage": 0.88}
{"variant": "U51A G63C A64U U80A", "self-cleavage": 0.15}
{"variant": "U51A G63U A64G A65G", "self-cleavage": 0.23}
{"variant": "U51A U54A A65G", "self-cleavage": 0.54}
{"variant": "U51A U54C A57U", "self-cleavage": 0.52}
{"variant": "U51A U54C U60C U72A U78C", "self-cleavage": 0.63}
{"variant": "U51A U58A U74G U76C", "self-cleavage": 0.45}
{"variant": "U51A U58C A64U U78C", "self-cleavage": 0.25}
{"variant": "U51A U58C U60C", "self-cleavage": 0.31}
{"variant": "U51A U58C U67C U69C", "self-cleavage": 0.44}
{"variant": "U51A U58C U72A", "self-cleavage": 0.49}
{"variant": "U51A U58C U80C", "self-cleavage": 0.37}
{"variant": "U51A U60A A64G", "self-cleavage": 0.72}
{"variant": "U51A U60A U80C", "self-cleavage": 0.87}
{"variant": "U51A U60C A77G", "self-cleavage": 0.38}
{"variant": "U51A U60C C62G U72C A75G", "self-cleavage": 0.48}
{"variant": "U51A U60C U69A G70U U72C U76C", "self-cleavage": 0.45}
{"variant": "U51A U60C U76G U80C", "self-cleavage": 0.33}
{"variant": "U51A U66C U69C", "self-cleavage": 0.42}
{"variant": "U51A U69A U76C", "self-cleavage": 0.83}
